# According to PubChem BioAssay AID1768 (National Center for Advancing Translational Sciences (NCATS), 2009):
# The whole screen tested about 270,000 compounds, of which about 620 (0.23%) were called active. This list was built around the results that the source calls inconclusive (neither active nor inactive); the mix of calls is not that of the screen. Calls come from the whole dose curve; as a rule, active = well fitted inhibition curve with a large enough effect in the polarisation, with a control signal flat (not every such curve was filed as active); inconclusive = small, poorly fitted or top-dose-only effect, or effect the other way, or a change in a side signal; inactive = no such curve, though single readings can be large or run the other way; the % refers to the polarisation. Potencies of inconclusive entries are doubtful fits and often do not repeat. A note “side channel” means that the fit belongs to a control or component signal, not to the main read-out.
# Target: Menin (Homo sapiens) (UniProt O00255)
# Test: qHTS Assay for Inhibitors Targeting the Menin-MLL Interaction in MLL Related Leukemias: Competition With Texas Red Labeled MLL-derived Mutant Peptide; for FP activity change, negative = inhibition: % of control where 0% means no effect
# Conditions: fluorescence polarization; FP activity change, negative = inhibition: at 61.6 µM (top of the series)
# Potency is the fitted concentration of half-maximal effect; tags give direction and shape of the fitted curve or compound fluorescence and quenching.
# UniProt O00255, sequence (O00255 whole entry, looked up): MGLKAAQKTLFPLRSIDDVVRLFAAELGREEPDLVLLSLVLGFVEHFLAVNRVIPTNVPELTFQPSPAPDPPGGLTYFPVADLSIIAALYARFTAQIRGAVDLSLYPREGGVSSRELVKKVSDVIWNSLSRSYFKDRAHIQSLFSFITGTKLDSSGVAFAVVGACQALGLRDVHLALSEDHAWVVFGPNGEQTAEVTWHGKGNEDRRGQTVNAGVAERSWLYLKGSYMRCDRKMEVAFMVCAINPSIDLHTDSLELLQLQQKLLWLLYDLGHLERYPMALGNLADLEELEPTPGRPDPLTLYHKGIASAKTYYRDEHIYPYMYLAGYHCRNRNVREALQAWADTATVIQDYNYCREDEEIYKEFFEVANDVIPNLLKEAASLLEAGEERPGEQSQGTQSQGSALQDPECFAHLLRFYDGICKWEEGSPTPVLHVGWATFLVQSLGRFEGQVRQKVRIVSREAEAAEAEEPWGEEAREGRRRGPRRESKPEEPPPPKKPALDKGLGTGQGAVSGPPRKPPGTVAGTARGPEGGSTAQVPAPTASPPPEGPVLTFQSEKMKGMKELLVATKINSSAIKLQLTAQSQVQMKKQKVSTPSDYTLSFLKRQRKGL
Compound,Potency,"FP activity change, negative = inhibition"
COc1ccccc1/C=C/c1nc(S(=O)(=O)c2ccccc2)c(NCCN(C)C)o1,"inconclusive: 10 µM [inhibitor, partial curve]",–
O=C(Cc1ccc(S(=O)(=O)N2CCCC2)s1)Nc1nc2c(s1)CCCC2,"inconclusive: 28.2 µM [quencher, side channel, single point]",–
Cc1[nH]c2ccccc2c1/C=N/Nc1nc(Nc2ccc(F)cc2)nc(N2CCOCC2)n1,"inconclusive: 15.8 µM [quencher, side channel, partial curve]",–
CCNc1ncc2nc(-c3ccc(F)cc3)c(=O)n(CCc3ccccc3)c2n1,"inconclusive: 14.1 µM [fluorescent, side channel, partial curve]",–
C(#CC1C=CC2OC(c3ccccc3)OCC2O1)c1ccccc1 (stereo not given),"inconclusive: 7.08 µM [quencher, side channel, single point]",–
COC(=O)c1sccc1NC(=O)CSc1ccccc1NS(=O)(=O)c1ccc(Br)cc1,"inconclusive: 25.1 µM [quencher, side channel, single point]",–
O=C(Nc1ccc(-c2noc(CCc3ccccc3)n2)cc1)c1cccnc1,"inconclusive: 20 µM [quencher, side channel, partial curve]",–
C/C(=N\N)c1c(-c2ccccc2)c2cc(Br)ccc2[nH]c1=O,"inconclusive: 39.8 µM [inhibitor, single point]",–
Cc1cc(C)c2c(=O)n(CC(=O)N3CCC(N4CCCCC4)CC3)sc2n1,–,inactive: 1.57%
O=C(N/N=C/c1cc([N+](=O)[O-])ccc1O)/C(=C\c1cccs1)NC(=O)c1ccccc1,"inconclusive: 10 µM [quencher, side channel, partial curve]",–
Cc1ccc(-c2cc(-c3ccc4c(c3)OCO4)c(C#N)c(N)n2)o1,–,inactive: 25.9%
O=C(CSc1nc2ccccc2o1)N/N=C/c1ccccc1,"inconclusive: 7.94 µM [inhibitor, single point]",–
N#Cc1cccc(CS(=O)(=O)c2nnnn2-c2cc(C(F)(F)F)cc(C(F)(F)F)c2)c1,"inconclusive: 10 µM [inhibitor, partial curve]",–
CCOC(=O)C(=CNc1cc(C)nn1-c1ccc(Cl)cc1)C(=O)OCC,"inconclusive: 8.91 µM [fluorescent, side channel, full curve, poor fit]",–
CC1CCC(NC(=O)CN2CCC(n3nnc4cc(F)ccc43)CC2)CC1 (stereo not given),"inconclusive: 11.2 µM [inhibitor, partial curve, poor fit]",–
CCCCCn1c(=O)[nH]c2cc(C(=O)NCc3ccco3)ccc2c1=O,"inconclusive: 35.5 µM [inhibitor, single point]",–
O=C(CO/N=C/c1ccccc1OC(F)F)N1CCc2ccccc21,"inconclusive: 14.1 µM [inhibitor, partial curve]",–
Cc1c(CCC(C)C)c(=O)n2c([nH]c3ccccc32)c1C#N,–,inactive: -13.4%
O=C(c1ccccc1)C1CCN(C(=O)c2ccc(Cl)cc2)CC1,"inconclusive: 14.1 µM [inhibitor, partial curve]",–
C/C(=N/NS(=O)(=O)c1ccc(Cl)cc1)c1cccc(NC(=O)c2ccncc2)c1,"inconclusive: 12.6 µM [quencher, side channel, partial curve]",–
O=C1N/C(=N\N=C\c2cccs2)SC1Cc1ccc(Cl)cc1Cl (stereo not given),"inconclusive: 12.6 µM [quencher, side channel, partial curve]",–
Cc1cccc(NC(=O)CN(C2=NC3CS(=O)(=O)CC3S2)c2ccccc2F)c1 (stereo not given),–,inactive: -0.717%
Cc1ccc(SCCc2cc[n+](CC(=O)c3ccccc3)cc2)cc1,–,inactive: -14.5%
Cc1ccccc1C(=O)Nc1cccc(C(=O)N/N=C/c2cc(Cl)cc([N+](=O)[O-])c2O)c1,"inconclusive: 25.1 µM [quencher, side channel, partial curve]",–
O=S1(=O)N=C(Nc2ccc(N3CCOCC3)cc2)c2ccccc21,"inconclusive: 35.5 µM [quencher, side channel, single point]",–
O=C(/C=C/c1cccc(Cl)c1)Nn1c(-c2cccs2)nc2ccccc2c1=O,"inconclusive: 39.8 µM [inhibitor, single point]",–
CCOc1ccc(C(C(=O)NC2CCCCC2)N(C(=O)c2ccccn2)c2cccnc2)cc1 (stereo not given),"inconclusive: 39.8 µM [inhibitor, single point]",–
O=C(Nc1ccc(Cl)c([N+](=O)[O-])c1)Nc1nc2ccccc2s1,"inconclusive: 28.2 µM [quencher, side channel, single point]",–

Compound,Potency,"FP activity change, negative = inhibition"
COC(=O)N1[C@H](C)C=C[C@]1(Cc1ccccc1)C(=O)O,"inconclusive: 22.4 µM [quencher, side channel, single point]",–
CC(=O)Nc1ccc2nc(SCC(=O)Nc3ccc(N4CCOCC4)c(Cl)c3)sc2c1,"inconclusive: 1.41 µM [quencher, side channel, full curve]",–
CCN(CC)c1ncnc2c1cnn2Cc1ccc(C)cc1,"inconclusive: 11.2 µM [fluorescent, side channel, partial curve]",–
O=C(c1ccco1)N1N=C(c2ccc(Cl)cc2)CC1(O)C(F)(F)F (stereo not given),"inconclusive: 35.5 µM [fluorescent, side channel, partial curve]",–
N#CC1=C(N)Oc2c(ccc3ccccc23)C1c1cccs1 (stereo not given),"inconclusive: 20 µM [quencher, side channel, partial curve]",–
CCN(C(=O)Cn1c(=O)n2nc(CCn3nc(C)cc3C)nc2c2ccccc21)c1cccc(C)c1,"inconclusive: 3.98 µM [fluorescent, side channel, full curve, poor fit]",–
CCc1cccc(CC)c1NC(=O)CSc1nc2ccc(N3C(=O)C4C(C3=O)[C@H]3C=C[C@@H]4C3)cc2s1 (stereo not given in full),–,inactive: 4.11%
CCOc1ccc2nc(SCC(=O)c3cccs3)sc2c1,"inconclusive: 28.2 µM [quencher, side channel, single point]",–
O=C(NCc1cccnc1)c1c(O)c2cccc3c2n(c1=O)CCC3,"inconclusive: 25.1 µM [inhibitor, single point]",–
COc1cc(NC(=O)c2ccco2)c(C(=O)OCC(=O)c2c[nH]c3ccccc23)cc1OC,"inconclusive: 17.8 µM [quencher, side channel, partial curve]",–
CCOc1cccc(-c2nnc3sc(-c4cc(OC)c(OC)cc4OC)nn23)c1,–,inactive: 15.3%
O=C(Nc1nc2ccc(S(=O)(=O)N3CCCC3)cc2s1)c1cccs1,"inconclusive: 12.6 µM [quencher, side channel, partial curve]",–
CCN(CC)c1ccc(/C=N/NS(=O)(=O)c2cccc([N+](=O)[O-])c2)cc1,"inconclusive: 10 µM [quencher, side channel, partial curve]",–
Cc1cc2oc(C(=O)Nc3ccc(S(N)(=O)=O)cc3)c(C)c2cc1Cl,"inconclusive: 14.1 µM [inhibitor, partial curve]",–
Cc1[nH]n(-c2ccccc2)c(=O)c1/C=N/NC(=O)c1ccccc1F,"inconclusive: 20 µM [quencher, side channel, partial curve]",–
O=C(O)c1cc(N/N=C/c2c[nH]c3ccccc23)ccc1Cl,"inconclusive: 25.1 µM [quencher, side channel, partial curve]",–
CN(C)c1ccc(NC(=O)Nc2ccc3snnc3c2)cc1,"inconclusive: 14.1 µM [quencher, side channel, partial curve]",–
COc1ccc(/C=C2\N=C(SC)SC2=O)cc1OC,"inconclusive: 22.4 µM [quencher, side channel, single point]",–
N#C/C(=C\C1=C(N2CCOCC2)C(=C/c2cccc([N+](=O)[O-])c2)/CC1)C(=O)Nc1ccccc1F,"inconclusive: 25.1 µM [fluorescent, side channel, partial curve]",–
COc1ccc(-c2csc(/C(C#N)=C/Nc3ccc4c(c3)OCCO4)n2)cc1,"inconclusive: 5.62 µM [quencher, side channel, partial curve]",–
Cc1ccc(NC(=O)CCCn2c(=S)[nH]c3ccsc3c2=O)cc1C,"inconclusive: 39.8 µM [quencher, side channel, single point]",–
CCc1ccc(NC(=S)N(Cc2ccc(Cl)cc2)Cc2ccc(C(=O)O)cc2)cc1,"inconclusive: 17.8 µM [quencher, side channel, partial curve]",–
COc1ccccc1/C=C/CN1CCN(Cc2ccc(C)o2)C(CCO)C1 (stereo not given),–,inactive: -3.86%
Cc1c(Cl)c([N+](=O)[O-])nn1Cc1ccc(C(=O)Nc2ccc(Cl)cn2)o1,"inconclusive: 25.1 µM [quencher, side channel, partial curve]",–
C#CCOCCOCCOCCNc1nc(N2CCN(C(=O)[C@H](CCCCN)n3cc([C@@H](N)CO)nn3)CC2)nc(N2CCN(C(=O)[C@H](Cc3cc4ccccc4[nH]3)n3cc([C@@H](N)CC(C)C)nn3)CC2)n1,"inconclusive: 12.6 µM [fluorescent, side channel, partial curve]",–
Cc1ccc(NCC(=O)N/N=C\C(Br)=C\c2ccccc2)cc1,"inconclusive: 15.8 µM [quencher, side channel, partial curve]",–
CC(/C=C1\SC(=S)N(NC(=O)c2ccc(C)cc2)C1=O)=C\c1ccccc1,"inconclusive: 17.8 µM [quencher, side channel, partial curve]",–
